According to PubChem BioAssay AID2202238 (Ras Initiative Chemistry Research Team, Frederick National …, 2025):
Some of the results follow. Shown are side measurements of this screen, not its main read-out; they come without a call.

Molecular target: GTPase KRas (Homo sapiens) (UniProt P01116)
Assay: Fragment capture on engineered cysteines, share of protein labelled (AID 2202238)
Design: protein at 5 µM with 500 µM competing thiol for 1.5 h
Details: KRAS G12D cysteine mutants, disulfide tethering, MALDI-TOF labeling, stronger effect = higher value, fragment at 500 µM
[1] = measured here: G75C mutant labeling
[2] = measured here: H94C mutant labeling
[3] = measured here: I36C mutant labeling
[4] = measured here: L120C mutant labeling
[5] = measured here: M67C mutant labeling
[6] = measured here: M72C mutant labeling
[7] = measured here: N86C mutant labeling
[8] = measured here: P121C mutant labeling
[9] = measured here: S122C mutant labeling
[10] = measured here: S136C mutant labeling
[11] = measured here: G60C mutant labeling
[12] = measured here: N26C mutant labeling

Chain of UniProt P01116 (P01116 whole entry, looked up, the tested form may be a part): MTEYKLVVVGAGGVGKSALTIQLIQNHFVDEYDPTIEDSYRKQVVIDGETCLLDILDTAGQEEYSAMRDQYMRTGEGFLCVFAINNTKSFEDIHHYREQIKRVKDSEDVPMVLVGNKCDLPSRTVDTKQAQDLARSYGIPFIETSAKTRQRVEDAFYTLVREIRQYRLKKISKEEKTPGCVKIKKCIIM

| Compound | percent labeling [1] | percent labeling [2] | percent labeling [3] | percent labeling [4] | percent labeling [5] | percent labeling [6] | percent labeling [7] | percent labeling [8] | percent labeling [9] | percent labeling [10] | percent labeling [11] | percent labeling [12] |
| --- | --- | --- | --- | --- | --- | --- | --- | --- | --- | --- | --- | --- |
| CC1(C)Cc2cccc(NC(=O)CCS)c2O1 | 14.8% | 39.1% | 31.8% | 30.8% | 23.4% | 33.7% | 21.3% | 25% | 28.6% | 45.7% |  |  |
| COC(=O)c1ccc(CN(C)C(=O)CCS)nc1 | 14.1% | 30.9% | 37.3% | 39.3% | 39.3% | 29.8% | 31.8% | 41.9% | 37.1% | 57.5% |  |  |
| O=C(N[C@@H](Cc1cnc[nH]1)C(=O)NCCS)C1CCCCC1 | 10.3% | 25.5% | 20.3% | 36% | 25.4% | 15.4% | 22.7% | 27% | 24.2% | 29.5% | 26.3% | 28.1% |
| Cc1cc(C(=O)NCCS)cc(NCC(F)(F)F)n1 | 19.6% | 26.3% | 20.2% | 29.3% | 23.6% | 37.2% | 25.2% | 19.4% | 21.1% | 36.7% | 37.4% | 46.5% |
| CN1CCC(n2nccc2NC(=O)CCS)CC1 | 12.6% | 33% | 52.5% | 16.9% | 42.5% | 19.9% | 30.4% | 32.7% | 24.5% | 56.4% |  |  |
| O=C(NCCS)c1ccc2scc(Br)c2c1 | 13.2% | 13.3% | 9.5% | 10.9% | 15.4% | 30.2% | 10.1% | 12.6% | 6.3% | 19% | 34% | 32.1% |
| O=C(CCS)NC1(c2ccc(F)cc2)CCOCC1 | 12.8% | 40.5% | 42.4% | 40.8% | 38.9% | 29.6% | 25.3% | 38.1% | 40.8% | 52.5% |  |  |
| O=C(CCS)N1CCC(N2CC(O)C2)CC1 | 19.4% | 28.8% | 39.7% | 35.3% | 36% | 17.5% | 22.8% | 28.3% | 34.4% | 47.6% |  |  |
| Cc1c(C2CC2)nc2ccc(Br)cc2c1C(=O)NCCS | 10.6% | 12.1% | 5.7% | 7.7% | 11.5% | 19.1% | 4.7% | 7.1% | 4.8% | 11.9% | 50.2% | 28.4% |
| O=C(CCS)N1CCOc2c(Cl)cc(Br)cc2C1 | 14.3% | 20.9% | 12.3% | 13.2% | 12.6% | 40.2% | 15.7% | 15.4% | 11% | 27.4% |  |  |
| CCN1CCC(N(C)C(=O)CCC(=O)NCCS)CC1 | 10.2% | 29.2% | 29.3% | 41.6% | 34.6% | 11% | 26.4% | 29.6% | 30% | 37.3% | 25.6% | 35% |
| O=C(CCS)NCC1CCC(c2ccccc2)CC1 (stereo not given) | 12.4% | 18.6% | 17.3% | 15.9% | 20.4% | 31.2% | 10.5% | 17.8% | 14.4% | 31.8% |  |  |
| CC(C)c1nc(Cn2cc(C(=O)NCCS)ccc2=O)cs1 | 20% | 32% | 25.6% | 24.4% | 29.8% | 41.8% | 17.2% | 22.2% | 22.2% | 44.7% | 41% | 41.1% |
| Cc1nn(Cc2ccccc2)c2ncc(NC(=O)CCS)cc12 | 10.7% | 12% | 14.5% | 13.1% | 28.9% | 28.1% | 9.6% | 11.5% | 9.5% | 26.7% |  |  |
| CNC(=O)Cn1ccc(NC(=O)CCS)n1 | 15.1% | 23.2% | 28.2% | 29.4% | 24.6% | 17.6% | 27% | 25% | 34.3% | 38.7% |  |  |
| CN(C(=O)CCS)C1CCN(c2ccccc2)CC1 | 12.5% | 35.3% | 31.2% | 28.3% | 39.5% | 25.4% | 19.1% | 31.3% | 30% | 53.2% |  |  |
| COc1cccc(C2C(c3ccccc3)CCN2C(=O)CCS)c1 (stereo not given) | 19.7% | 24.9% | 17.2% | 16.3% | 23% | 24.3% | 19.4% | 17.9% | 9.6% | 56.8% |  |  |
| O=C(NCCS)c1ccnn1CCC(F)(F)F | 28.2% | 41.9% | 25.7% | 34.7% | 28.9% | 40.1% | 28.8% | 29.3% | 30.6% | 46.1% | 34.1% | 37.5% |
| O=C(NCCS)C1(c2ccc(Cl)cc2)CCCC1 | 17% | 21.5% | 13.5% | 44.7% | 15.5% | 30% | 12.7% | 16.9% | 8.2% | 22% | 50.4% | 24.4% |
| CN(C(=O)C1CCCN(C(=O)CCS)C1)c1ccccn1 (stereo not given) | 10.4% | 33.1% | 32.2% | 22.8% | 35.8% | 13% | 21.9% | 28.2% | 32.4% | 58.7% |  |  |
| O=C(CCS)NCc1n[nH]c(=O)n1C1CC1 | 12% | 24.4% | 33.2% | 35.3% | 29.3% | 17.3% | 24.6% | 38.8% | 35.4% | 49.7% |  |  |
| Cc1cnn(-c2ccc(C(=O)NCCS)cc2)c1 | 6.7% | 7.6% | 5% | 10% | 5.7% | 36.1% | 8.6% | 7.2% | 4.8% | 13.8% | 6.2% | 22.3% |
| O=C(CCS)Nc1cccc(-n2nn[nH]c2=O)c1 | 13% | 25.5% | 21.3% | 28.9% | 19% | 19.6% | 28.9% | 28.6% | 34.3% | 38.5% |  |  |
| O=C(CCS)NCCOc1ccc(Cl)c(Cl)c1 | 13% | 38.8% | 29.5% | 20.5% | 22.4% | 43.8% | 22.5% | 24% | 15.6% | 29.5% |  |  |

| Compound | percent labeling [1] | percent labeling [2] | percent labeling [3] | percent labeling [4] | percent labeling [5] | percent labeling [6] | percent labeling [7] | percent labeling [8] | percent labeling [9] | percent labeling [10] | percent labeling [11] | percent labeling [12] |
| --- | --- | --- | --- | --- | --- | --- | --- | --- | --- | --- | --- | --- |
| O=C(CCS)Nc1cnn(-c2ncccc2Cl)c1 | 14.3% | 38% | 39.6% | 42.9% | 42.1% | 46.2% | 31.8% | 34.3% | 36.2% | 57.9% |  |  |
| O=C(NCCS)c1sccc1-n1ccnn1 | 23.1% | 40.4% | 28.7% | 43.9% | 34.4% | 39.8% | 32.4% | 36.1% | 38.1% | 45.2% | 37.7% | 41.7% |
| Cc1c(NC(=O)CCS)c(=O)n(C2CCCCC2)n1C | 7.8% | 28.4% | 32.8% | 30.1% | 34.4% | 15% | 23.9% | 29.6% | 27.4% | 50.1% |  |  |
| CCC1(C(=O)NCCS)CCN(C(=O)c2ccccc2)CC1 | 12.4% | 33.4% | 24.5% | 35.2% | 62.3% | 22.8% | 24.9% | 34.9% | 32.6% | 48.6% | 32.9% | 34.4% |
| O=C(CCS)NC(Cn1ccnc1)c1ccccc1 (stereo not given) | 15.8% | 32.4% | 44.1% | 33.1% | 42.2% | 21.7% | 17% | 35.4% | 34.2% | 64.4% |  |  |
| Cc1nc(N2CCOCC2)sc1CN(CC1CN(C)CCO1)C(=O)CCS (stereo not given) | 11.8% | 22% | 19.1% | 17.1% | 40.5% | 14.2% | 18.7% | 21.1% | 20.5% | 41.5% |  |  |
| O=C(CCS)NCCCN1C(=O)NC2(CCC2)C1=O | 9.8% | 35.1% | 41.2% | 38.3% | 41.8% | 28.4% | 37% | 38.5% | 45.4% | 56.3% |  |  |
| Cn1c(CNC(=O)CCS)nnc1C1CC1 | 0% | 15.9% | 29.8% | 23% | 25.1% | 12.6% | 13.2% | 25.2% | 24.9% | 40.2% |  |  |
| O=C(CCS)N1CCC2(CC1)CC2c1nc(-c2cccc(Cl)c2)no1 (stereo not given) | 13% | 11.8% | 23.2% | 8.1% | 9.4% | 23.3% | 14.3% | 12.8% | 5% | 19.6% |  |  |
| O=C(Cc1cnn(-c2ccccc2)c1)NCCS | 13.4% | 18.5% | 13.5% | 19.6% | 24.4% | 26.1% | 13.2% | 16.6% | 16.4% | 17.6% | 22.1% | 29.3% |
| CCC(C)C(NC(=O)Nc1cc(C)ccc1C)C(=O)NCCS (stereo not given) | 0% | 6.3% | 5.6% | 4.4% | 5.8% | 5.9% | 4.7% | 5.5% | 2.5% | 8% | 10% | 9.8% |
| CN(CC(=O)NCCS)c1ccc(C#N)cc1F | 18.3% | 36.6% | 27.5% | 39% | 31.5% | 44.8% | 24.6% | 31.7% | 29.1% | 41.6% | 43.8% | 42.8% |
| O=C(CCS)Nc1ccc2c(n1)OCCO2 | 28.6% | 39.3% | 36.1% | 43.2% | 31.6% | 42.6% | 35.1% | 34.9% | 32% | 50.2% |  |  |
| N#CC1CN(C(=O)CCS)CC12C(=O)Nc1ccccc12 (stereo not given) | 14.7% | 35.7% | 41.2% | 29.5% | 49.6% | 52.3% | 27% | 37% | 29.5% | 56.5% |  |  |
| O=C(CCS)NCCNC(=O)c1ccc(F)cc1 | 11% | 30.7% | 39.3% | 30% | 32% | 21.3% | 14.5% | 36.2% | 34.5% | 44.3% |  |  |
| O=C(NCCS)c1c(Cl)cccc1OCC1CC1 | 17.6% | 36.3% | 21.6% | 30.5% | 30.1% | 27.3% | 27.8% | 28.2% | 24.7% | 37.7% | 52.8% | 41% |
| CCOc1cccc2[nH]c(C(=O)NCCS)cc12 | 11.8% | 10.7% | 12.1% | 15.2% | 6.8% | 27.3% | 8.8% | 9.5% | 10.7% | 15.5% | 10.9% | 24% |
| CN(C)Cc1nnc(C2CCCCN2C(=O)CCS)o1 (stereo not given) | 6.2% | 26.1% | 34.9% | 26.2% | 34.9% | 12.3% | 21.2% | 27.3% | 23.2% | 43.7% |  |  |
| O=C(NCCS)C(c1ccccc1)n1sc2ccccc2c1=O (stereo not given) | 11.7% | 20.2% | 18.9% | 16.2% | 16.2% | 31.1% | 10.7% | 12.7% | 9.8% | 22.2% | 48.4% | 25.9% |
| O=C(CCCc1ccc2c(c1)OCCCO2)NCCS | 18% | 31.1% | 24% | 37.5% | 27.4% | 36.2% | 21.2% | 25.9% | 26.7% | 46.2% | 42.4% | 34.2% |
| O=C(CCS)Nc1ccnn1Cc1ccc(Br)s1 | 11.1% | 27.2% | 21.9% | 15.6% | 26.2% | 41.9% | 19.1% | 9.6% | 11.9% | 40.1% |  |  |
| CCN1C(=O)CO[C@H](C(=O)NCCS)[C@H]1c1ccccc1 | 9.9% | 25.7% | 19.2% | 21.1% | 25.2% | 16% | 16.5% | 25.7% | 20.1% | 35.4% | 36.2% | 25.3% |
| CCC(C)C(=O)N1Cc2ccccc2CC1C(=O)NCCS (stereo not given) | 7.5% | 18% | 12.1% | 30.3% | 12.7% | 14.4% | 9.4% | 15.7% | 11.1% | 25.9% | 25.5% | 17.9% |
